Source: the supplement of paper PMC10126150
Sequences with one replicate were seen in a single cluster, so their values are uncertain.

Test system: ATP
Test: switch fluorescence ratio, 500 uM ATP over buffer (Cy3 cluster intensity, sum of 5 cycles each) (fold (ratio)); higher = stronger signal-on switching upon ATP binding; sequences stand for … in TCGTCGGCAGCGTCAGATGTGTATAAGAGACAGTTTTTTTTTTTTTTTTTTTTTTTTT…TC
Conditions: aptamer strand: ATP DNA aptamer (quencher-CACCTGGGGGAGTATTGCGGAGGAAGG + anchor), 100 nM annealed; ATP concentration: 500 uM; one replicate
Outline: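 Switching-strand clusters labelled with Cy3 on a modified Illumina MiSeq flow-cell were annealed to 100 nM quencher-labelled ATP aptamer, imaged in selection buffer, and re-imaged after 15 min with 500 uM ATP at 22 °C. This was done over five cycles with NaOH stripping and re-annealing in between. The fluorescence ratio is summed target-cycle over summed buffer-cycle Cy3 intensity per cluster, averaged per switch-domain sequence, excluding clusters outside 100-1000 RFU.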
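Further: ATP exposure 15 min at 22 °C before imaging.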

| Sequence | switch fluorescence ratio |
| --- | --- |
| TCTGTTATGC | 1.05 |
| TCTGTTTCGA | 1.02 |
| TCTGTTTT | 0.948 |
| TCTTAACAAG | 0.957 |
| TCTTAAGAAT | 0.928 |
| TCTTACTCTC | 1.12 |
| TCTTATAAAT | 0.996 |
| TCTTATAAGG | 1 |
| TCTTATCGGG | 1.05 |
| TCTTATGCAG | 0.944 |
| TCTTCCCCAG | 4.71 |
| TCTTCCTCG | 2.32 |
| TCTTCGCGTT | 0.989 |
| TCTTCGGACT | 0.995 |
| TCTTGCTCTA | 1.01 |
| TCTTGGACAC | 0.998 |
| TCTTGGCAGT | 1.1 |
| TCTTGGCGTT | 1 |
| TCTTGGTTGT | 0.979 |
| TCTTGTAAAT | 1.63 |
| TCTTGTAATT | 0.989 |
| TCTTGTGACT | 0.971 |
| TCTTGTTCAG | 0.986 |
| TCTTTGCCTA | 0.998 |
| TCTTTGGCCC | 0.984 |
| TCTTTTAGAG | 0.989 |

| Sequence | switch fluorescence ratio |
| --- | --- |
| TCTTTTCCGT | 1.01 |
| TCTTTTCTA | 0.986 |
| TCTTTTTACC | 1.04 |
| TGAAAAAGAA | 0.967 |
| TGAAAACTCG | 1.04 |
| TGAAAACTTC | 1.04 |
| TGAAACGAGG | 0.995 |
| TGAAACGCGA | 1.26 |
| TGAAACTAGA | 1.03 |
| TGAAAGGCCT | 1.02 |
| TGAAAGTATG | 1 |
| TGAAATACTG | 1 |
| TGAAATCGAC | 1.06 |
| TGAACCCGA | 1.05 |
| TGAACCGCGC | 3.11 |
| TGAACCGTTG | 1.03 |
| TGAAGAAGCT | 1.14 |
| TGAAGATTAG | 1.04 |
| TGAAGCCACG | 1.05 |
| TGAAGGCAGT | 1.09 |
| TGAAGGCTGG | 0.951 |
| TGAAGGGAAT | 1.05 |
| TGAAGTCAG | 1.03 |
| TGAAGTCTAA | 0.976 |
| TGAAGTTTCG | 1 |
| TGAATAAGCT | 1.02 |

| Sequence | switch fluorescence ratio |
| --- | --- |
| TGAATAAGGT | 0.968 |
| TGAATAATGG | 1.04 |
| TGAATAGGAC | 1.05 |
| TGAATATATA | 1.01 |
| TGAATATGG | 0.973 |
| TGAATCTT | 1.04 |
| TGAATGCAGT | 1.04 |
| TGAATGCATA | 1.06 |
| TGAATGGGA | 1.01 |
| TGAATGTCAC | 1.02 |
| TGAATTAGGT | 0.985 |
| TGAATTGGCA | 1.03 |
| TGAATTGGCG | 0.979 |
| TGAATTTCAG | 0.999 |
| TGACAAGTAC | 1.63 |
| TGACAAGTTA | 1.01 |
| TGACAGAATA | 1.02 |
| TGACAGCAGG | 1.04 |
| TGACAGGGGT | 1.03 |
| TGACAGTAGG | 0.974 |
| TGACATCTAC | 1.39 |
| TGACATGTAT | 0.986 |
| TGACCAGTAC | 3.17 |
| TGACCCGTTA | 1.01 |
| TGACCGGGAA | 1.06 |
| TGACCTGGTT | 0.96 |

| Sequence | switch fluorescence ratio |
| --- | --- |
| TGACGACCCC | 2 |
| TGACGAGATA | 1.06 |
| TGACGCGCAC | 3.08 |
| TGACGGACTA | 1.59 |
| TGACGGGGAC | 1.27 |
| TGACGGTAAG | 1.02 |
| TGACGGTGTT | 1.04 |
| TGACTAAGAC | 1.1 |
| TGACTACCTA | 1.12 |
| TGACTAGGGT | 1.01 |
| TGACTATATG | 0.907 |
| TGACTGAGCT | 1.04 |
| TGACTGCCAG | 0.981 |
| TGACTGCGTG | 0.945 |
| TGACTTCAGG | 1.01 |
| TGACTTTTCC | 1.16 |
| TGACTTTTGA | 1 |
| TGAGAAGTAG | 0.971 |
| TGAGACTCAT | 0.972 |
| TGAGAGAACT | 0.978 |
| TGAGAGGTAG | 0.955 |
| TGAGATGTTA | 1.12 |
| TGAGATTTAT | 0.996 |
| TGAGATTTTC | 1.09 |
| TGAGCAAGGG | 1.05 |
| TGAGCAGTTA | 1.02 |

| Sequence | switch fluorescence ratio |
| --- | --- |
| TGAGCCAGAA | 1.05 |
| TGAGCGAACG | 1 |
| TGAGCGCGTT | 1.02 |
| TGAGCGGTC | 1.16 |
| TGAGGCCAGG | 1.23 |
| TGAGGCCCCC | 1.31 |
| TGAGGCCCGG | 1.01 |
| TGAGGGCCAT | 1.06 |
| TGAGGGTCA | 0.994 |
| TGAGGTGGCG | 0.945 |
| TGAGGTTGCC | 1.06 |
| TGAGTAAAG | 1.05 |
| TGAGTAAGGC | 0.932 |
| TGAGTACATT | 1 |
| TGAGTATTCA | 0.986 |
| TGAGTATTGT | 1 |
| TGAGTCAAGT | 1.03 |
| TGAGTCCCAG | 1.01 |
| TGAGTGCCGA | 1.03 |
| TGAGTGGGCA | 1.02 |
| TGAGTGTTGT | 0.945 |
| TGAGTTACA | 1.05 |
| TGAGTTACGG | 1.02 |
| TGAGTTGTAG | 0.98 |
| TGATAATTCC | 1.09 |
| TGATACGTAG | 1.02 |

| Sequence | switch fluorescence ratio |
| --- | --- |
| TGATAGCAGC | 1.05 |
| TGATAGGTAA | 1.03 |
| TGATATTGAT | 0.978 |
| TGATCAAGCT | 1.03 |
| TGATCATAT | 0.976 |
| TGATCGGACC | 1.05 |
| TGATCGGTTT | 0.999 |
| TGATCGTGGG | 0.957 |
| TGATCTACCA | 1.02 |
| TGATGACATC | 0.975 |
| TGATGATTCT | 1.02 |
| TGATGGCA | 1.06 |
| TGATGGCCCA | 1.03 |
| TGATGTAGGT | 1.05 |
| TGATGTGATC | 1.05 |
| TGATTAATTC | 1 |
| TGATTACGCT | 0.968 |
| TGATTCTCCT | 1.01 |
| TGATTGCTTA | 0.968 |
| TGATTGGGGC | 0.979 |
| TGATTGGTTG | 0.981 |
| TGATTTAAG | 0.978 |
| TGATTTATGT | 0.983 |
| TGATTTCAAT | 1 |
| TGATTTTCG | 1.02 |
| TGCAAAAAAG | 1.08 |

| Sequence | switch fluorescence ratio |
| --- | --- |
| TGCAAACCGG | 1.04 |
| TGCAAACTTG | 1.03 |
| TGCAACATTT | 1.01 |
| TGCAACTGAG | 1.1 |
| TGCAAGAAAT | 1.68 |
| TGCAAGACAG | 1.08 |
| TGCAATTGAT | 1.07 |
| TGCAATTTGA | 1.02 |
| TGCACCTGCC | 1.56 |
| TGCACGCT | 1.03 |
| TGCACTACAG | 1.01 |
| TGCACTGGGC | 1.03 |
| TGCAGATTGG | 0.999 |
| TGCAGCCAGG | 1.48 |
| TGCAGCTTGG | 1.02 |
| TGCAGGA | 0.989 |
| TGCAGGCTT | 1.03 |
| TGCAGGGGAG | 0.969 |
| TGCAGGGTGA | 1.07 |
| TGCAGGTACG | 1.03 |
| TGCAGGTGGG | 0.982 |
| TGCAGTCCGG | 1.02 |
| TGCAGTCGTT | 0.972 |
| TGCAGTTGGC | 1.04 |
| TGCATAGCGA | 1.01 |
| TGCATGAATC | 1.07 |

| Sequence | switch fluorescence ratio |
| --- | --- |
| TGCATGGATG | 1 |
| TGCATGTCGG | 1 |
| TGCATTATAT | 0.974 |
| TGCATTATC | 3.54 |
| TGCATTGATG | 1 |
| TGCATTGTGA | 0.98 |
| TGCATTTGGC | 0.992 |
| TGCATTTTGG | 0.984 |
| TGCCACGTAC | 2.22 |
| TGCCACGTCA | 0.947 |
| TGCCAGTATA | 0.982 |
| TGCCAGTCGA | 0.969 |
| TGCCATGAGA | 1.03 |
| TGCCATGAGT | 0.971 |
| TGCCATTTAC | 1.17 |
| TGCCCCACAT | 1.02 |
| TGCCCCTAGC | 1.03 |
| TGCCCGGCAG | 1.03 |
| TGCCCTACGA | 1.08 |
